Measurements reported in PubChem BioAssay AID1466 (National Center for Advancing Translational Sciences (NCATS), 2008).
The campaign covered roughly 200,000 compounds. About 10 (0.005%) were called active. Inconclusive results, whose numbers are uncertain, are shown with a selection of clear calls. The call rests on the fitted dose curve; in most records, active means well fitted inhibition curve with a large enough effect; inconclusive means small, poorly fitted or top-dose-only effect, or effect the other way, or another doubt; inactive means no such curve, though single readings can be large or run the other way. No potency is given beside an inconclusive call; the fits are too rough.

Target: Lysosomal alpha-glucosidase (Homo sapiens) (UniProt P10253)
Assay: qHTS Assay for Inhibitors of Human alpha-Glucosidase as a Potential Chaperone Treatment of Pompe Disease;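 on activity change, negative = inhibition: plate controls were uninhibited enzyme wells for no effect and no-enzyme background for full effect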
Conditions: purified human GAA, 4-MU-alpha-glucoside fluorescence; activity change, negative = inhibition: at 76.9 µM (top of the series) unless noted
Method in brief: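 AC50 values come from Hill fits of compound titrations (up to 77 uM) against 4 nM human enzyme. Substrate 4-methylumbelliferyl-alpha-D-pyranoside at 400 uM, pH 5.0 citrate buffer, 20 min room temperature; fluorescence Ex 365/Em 440 after alkaline stop.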
Potency means the concentration at half of the fitted maximal effect; tags describe the fitted curve by direction and shape.

With CCCCn1c2nc3ccccc3nc2c2c(=O)n(C(C)CC)cnc21 (stereo not drawn) as the molecule, how does the Potency read?
Its Potency is inconclusive [activator, partial curve].

CCOc1ccc(-n2nnc3c(=O)n(C/C=C/c4ccccc4)cnc32)cc1 was tested. Which activity change, negative = inhibition did it give?
The activity change, negative = inhibition was inconclusive: -20.3% [inhibitor].

Which Potency does the source give for O=C(O)c1ccccc1N1C(=O)C2C3CCC(C3)C2C1=O (stereo not drawn) here?
The Potency was inconclusive [inhibitor, single point].

How did the Potency turn out when CC1(C)C2C/C(=N\O)C(C)(/[N+]([O-])=C/c3cccc([N+](=O)[O-])c3)CC21 (stereo not drawn) was run?
The Potency was inconclusive [inhibitor, single point].

For CN(C)c1ccc(CN(C)C2CCCCC2)cc1, which “activity change, negative = inhibition” value is on record?
The value was inactive: -6.04%.

O=C(NCC(=O)N(CC1CCCO1)C(C(=O)NC1CCCC1)c1ccc(F)cc1)c1ccco1 (stereo not drawn) was tested. Which activity change, negative = inhibition did it give?
The activity change, negative = inhibition was inconclusive: -15.6% [inhibitor].

CC1CC(C)CN(S(=O)(=O)c2ccc(C(=O)NN3CCOCC3)cc2)C1 (stereo not drawn) was tested. Which Potency did it give?
The Potency was inconclusive [inhibitor, single point].

How did the “activity change, negative = inhibition” value turn out when COc1cccc(NC(=O)NC2(C(F)(F)F)Oc3ccccc3O2)c1 was run?
The value was inactive: -1.79%.

How did the activity change, negative = inhibition turn out when Cc1ccc(OCC(O)Cn2nc(C)cc2C)cc1 (stereo not drawn) was run?
The activity change, negative = inhibition was inconclusive: 13.2% [activator].

CN(C(=O)COc1ccccc1C(=O)NCCc1ccccc1)c1ccccc1 was tested. Which Potency did it give?
The Potency was inconclusive [inhibitor, full curve, poor fit].

Which Potency does the source give for COc1ccc2c(c1)c1nc3n(c(=O)c1n2CC(=O)Nc1cc(C)[nH]n1)CCS3 here?
Its Potency is inconclusive [activator, full curve].

For Cc1ccc(S(=O)(=O)N2CCC(C(=O)N[C@H](C(=O)NCC3CCCO3)C(C)C)CC2)cc1 (stereo partly drawn), which Potency is on record?
The Potency was inconclusive [inhibitor, partial curve, poor fit].

For Cc1ccc(C)c(-c2nn(-c3cc(N4CCN(CCO)CC4)ccc3[N+](=O)[O-])c(=O)c3ccccc23)c1, which “activity change, negative = inhibition” value is on record?
Its value is inactive: 6.85%.

With COC(=O)CCC(=O)CN as the molecule, how does the activity change, negative = inhibition read?
Its activity change, negative = inhibition is inactive: -0.393% [at 15.4 µM].

With COC(=O)c1ccc(C2NC(=S)N(c3ccccc3)C(C)=C2C(=O)Nc2ccccc2OC)cc1 (stereo not drawn) as the molecule, how does the Potency read?
The Potency was inconclusive [inhibitor, full curve].

For CC1Cc2nc(SCC(=O)N3CCCC3)n(C)c(=O)c2S1 (stereo not drawn), which Potency is on record?
The Potency was inconclusive [inhibitor, single point].

O=C(NCc1ccccn1)c1ccc2c(=O)n(CCc3ccccc3)c(=O)[nH]c2c1 was tested. Which Potency did it give?
Its Potency is inconclusive [activator, partial curve].

How did the Potency turn out when Cc1cc(C)c2c(n1)nn1c(NCCCN(C)C)cc(C)nc21 was run?
Its Potency is inconclusive [activator, partial curve].

Which activity change, negative = inhibition does the source give for CS(=O)(=O)N1CCC(C(=O)N2CCN(c3ccc(F)cc3)CC2)CC1 here?
Its activity change, negative = inhibition is inconclusive: 16.1% [activator].

Which Potency does the source give for O=C(COC(=O)/C=C/C(=O)N1CCN(c2ccccc2)CC1)NC(c1ccccc1)c1ccccc1 here?
Its Potency is inconclusive [inhibitor, single point].

How did the activity change, negative = inhibition turn out when CCCCCCCCC(=O)NCCOc1ccccc1 was run?
The activity change, negative = inhibition was inconclusive: -16.4% [inhibitor].

For O=C(NCC(c1ccco1)N1CCCCC1)C(c1ccccc1)c1ccccc1 (stereo not drawn), which Potency is on record?
Its Potency is inconclusive [inhibitor, single point].

With Cc1nn(C)c(C)c1S(=O)(=O)N(CC(=O)NCCCOC(C)C)c1ccc(C(C)C)cc1 as the molecule, how does the activity change, negative = inhibition read?
The activity change, negative = inhibition was inconclusive: -20.2% [inhibitor].

CCc1ccccc1N=C1SCC(=O)N1C was tested. Which Potency did it give?
The Potency was inconclusive [inhibitor, single point].

Which Potency does the source give for O=C(c1cc2cc(Cl)ccc2oc1=O)N1CCOCC1 here?
Its Potency is inconclusive [inhibitor, partial curve, poor fit].

For CCc1ccccc1NC(=O)NC1CC2CCC(C1)N2Cc1cccs1 (stereo not drawn), which activity change, negative = inhibition is on record?
Its activity change, negative = inhibition is inconclusive: -19.4% [inhibitor].

How did the Potency turn out when CCCn1c(C)cc(/C=C(\C#N)C(=O)OCC(=O)Nc2cccc(OC)c2)c1C was run?
The Potency was inconclusive [activator, single point].

How did the Potency turn out when Cc1ccc(-n2nc3c4c(cccc4c2=O)-c2ccccc2-3)cc1 was run?
The Potency was inconclusive [activator, single point].

With Cc1cc(NC(=O)CCC(=O)N(CC(=O)NCC2CCCO2)c2ccc3c(c2)OCCO3)no1 (stereo not drawn) as the molecule, how does the Potency read?
The Potency was inconclusive [inhibitor, single point].

How did the Potency turn out when CCNC(=O)NC(=O)C(C)Sc1nnc(COc2ccccc2Cl)o1 (stereo not drawn) was run?
The Potency was inconclusive [inhibitor, single point].

With CCOC(=O)c1cnn(-c2nc(-c3ccc(F)cc3)cs2)c1C(F)(F)F as the molecule, how does the activity change, negative = inhibition read?
The activity change, negative = inhibition was inconclusive: -15.2% [inhibitor].

How did the Potency turn out when COc1ccccc1/C=C1\S/C(=N/NC(=O)c2cccc(Br)c2)NC1=O was run?
The Potency was inconclusive [inhibitor, partial curve].

How did the Potency turn out when O=S(=O)(c1cccc2nsnc12)N1CCc2ccccc21 was run?
Its Potency is inconclusive [inhibitor, partial curve].

Which Potency does the source give for CCOc1ccc(C(=O)C2CCN(CC(=O)Nc3ccccc3N3CCOCC3)CC2)cc1 here?
Its Potency is inconclusive [inhibitor, single point].

With O=C(NC(CSCc1ccccc1)C(=O)N/N=C/c1ccc(O)cc1O)c1ccc([N+](=O)[O-])cc1 (stereo not drawn) as the molecule, how does the activity change, negative = inhibition read?
The activity change, negative = inhibition was inconclusive: -16.7% [inhibitor].

For O=C(COc1ccc2c(c1)C(=O)CC1(CCCCC1)O2)NCc1ccccn1, which Potency is on record?
The Potency was inconclusive [activator, partial curve].

O=C(NCc1ccco1)C1CCN(c2ccc(N3CCOCC3)nn2)CC1 was tested. Which activity change, negative = inhibition did it give?
The activity change, negative = inhibition was inconclusive: 15.6% [activator].

For Cc1noc(NS(=O)(=O)c2ccc(NC(=O)CC34CC5CC(CC(Br)(C5)C3)C4)cc2)c1C, which Potency is on record?
The Potency was inconclusive [inhibitor, partial curve].

Which Potency does the source give for Cc1cc(C)nc(N/N=C/c2cc3c(cc2[N+](=O)[O-])OCO3)n1 here?
Its Potency is inconclusive [inhibitor, partial curve, poor fit].

CC1CCCN(C(=O)CN2CCN(C(=O)c3ccco3)CC2)C1 (stereo not drawn) was tested. Which Potency did it give?
Its Potency is inconclusive [inhibitor, full curve, poor fit].

OC(COCc1ccccc1)CN1CCN(c2ccccc2F)CC1 (stereo not drawn) was tested. Which Potency did it give?
Its Potency is inconclusive [inhibitor, single point].

For C/C(=N\NC(=O)c1cc(C)[nH]n1)C(C)(C)C, which Potency is on record?
Its Potency is inconclusive [inhibitor, single point].

With O=S(=O)(c1ccccc1Cl)N1CCC(O)(c2ccc3c(c2)OCO3)CC1 as the molecule, how does the Potency read?
Its Potency is inconclusive [inhibitor, single point].

Which Potency does the source give for Cc1csc2ncc(C(=O)NCCc3ccccc3)c(=O)n12 here?
The Potency was inconclusive [activator, partial curve].

How did the Potency turn out when CC1CCN(S(=O)(=O)c2ccc3[nH]cc(C(=O)NCCN4CCOCC4)c(=O)c3c2)CC1 was run?
Its Potency is inconclusive [inhibitor, partial curve, poor fit].

CCCCOc1ccc(C(=O)Nn2c(-c3cccs3)nc3ccccc3c2=O)cc1 was tested. Which Potency did it give?
Its Potency is inconclusive [activator, partial curve].

Which Potency does the source give for CCOC(=O)c1sc(=S)n(-c2ccccc2Cl)c1SC here?
Its Potency is inconclusive [inhibitor, full curve].

With COc1ccc(-n2c(C)c([N+](=O)[O-])c3ccc(O)c(CN4CCCCC4)c32)cc1 as the molecule, how does the activity change, negative = inhibition read?
The activity change, negative = inhibition was inconclusive: -18.1% [inhibitor].

O=C(Cn1nc(-c2ccccc2)c2ccccc2c1=O)Nc1ccccn1 was tested. Which Potency did it give?
The Potency was inconclusive [inhibitor, single point].

Which Potency does the source give for CCCc1cc(C(=O)NNC(=S)NC(C)c2ccccc2)cs1 (stereo not drawn) here?
The Potency was inconclusive [inhibitor, partial curve].

Which Potency does the source give for CN(C)c1ncnc2c1ncn2C1OC(CO)C(O)C1O (stereo not drawn) here?
The Potency was inconclusive [inhibitor, single point].

Which Potency does the source give for NS(=O)(=O)c1ccc(NC(=O)C2(c3ccccc3)CCCC2)cc1 here?
Its Potency is inconclusive [inhibitor, full curve, poor fit].

For N#Cc1c(C(F)(F)F)cc(-c2ccccc2)nc1SCC(=O)N1CCOCC1, which Potency is on record?
The Potency was inconclusive [inhibitor, single point].

With Cc1ccc(-c2cc(C(=O)NCC3CCCO3)c3ccccc3n2)cc1C (stereo not drawn) as the molecule, how does the Potency read?
Its Potency is inconclusive [inhibitor, single point].

With CN(C)CCOc1ccc(Cl)cc1C(C)(C)C as the molecule, how does the Potency read?
Its Potency is inconclusive [inhibitor, full curve].

How did the Potency turn out when COc1ccc(CCn2c(C)cc3c(c2=O)C(c2ccc4c(c2)OCO4)C(C#N)=C(N)O3)cc1OC (stereo not drawn) was run?
The Potency was inconclusive [inhibitor, partial curve, poor fit].

Cc1nnc(-c2cnn(-c3ccccc3)c2N)n1Cc1ccncc1 was tested. Which Potency did it give?
Its Potency is inconclusive [inhibitor, single point].

Which Potency does the source give for Cc1ccc(C2C3=C(CC(C)(C)CC3=O)Nc3[nH]c(=S)[nH]c(=O)c32)cc1 (stereo not drawn) here?
Its Potency is inconclusive [inhibitor, full curve].

With C=CCN=c1scc(C)n1/N=C/c1ccc(O)c(O)c1 as the molecule, how does the “activity change, negative = inhibition” value read?
The value was inactive: -11.7%.

O=C(CN1CCCCCC1)Nc1ccccc1Oc1ccccc1 was tested. Which Potency did it give?
The Potency was inconclusive [inhibitor, full curve].

CCNc1nc(Oc2ccc(Cl)cc2Cl)cc(C(F)(F)F)n1 was tested. Which Potency did it give?
The Potency was inconclusive [inhibitor, full curve, poor fit].

Which Potency does the source give for Cc1ccc(C)c(NC(=O)Cn2c([N+](=O)[O-])cnc2C)c1 here?
The Potency was inconclusive [inhibitor, single point].

With Cc1noc(C)c1COc1ccc(C(=O)OCC(=O)N2CC(=O)Nc3ccccc32)cc1 as the molecule, how does the Potency read?
The Potency was inconclusive [inhibitor, single point].
